# These are yes or no findings as the source states them, for the method shown. Binding seen in cells or lysates may run through a third protein. Some binding calls cover weakened binding; strength is not graded here. For part of these data: Tags and fused reporters may be left off the sequences shown.
# By UniProt entry, the sequences of proteins in these tests, tags left out. Residues count along the entry.
# UniProt Q16620, residues 32-822: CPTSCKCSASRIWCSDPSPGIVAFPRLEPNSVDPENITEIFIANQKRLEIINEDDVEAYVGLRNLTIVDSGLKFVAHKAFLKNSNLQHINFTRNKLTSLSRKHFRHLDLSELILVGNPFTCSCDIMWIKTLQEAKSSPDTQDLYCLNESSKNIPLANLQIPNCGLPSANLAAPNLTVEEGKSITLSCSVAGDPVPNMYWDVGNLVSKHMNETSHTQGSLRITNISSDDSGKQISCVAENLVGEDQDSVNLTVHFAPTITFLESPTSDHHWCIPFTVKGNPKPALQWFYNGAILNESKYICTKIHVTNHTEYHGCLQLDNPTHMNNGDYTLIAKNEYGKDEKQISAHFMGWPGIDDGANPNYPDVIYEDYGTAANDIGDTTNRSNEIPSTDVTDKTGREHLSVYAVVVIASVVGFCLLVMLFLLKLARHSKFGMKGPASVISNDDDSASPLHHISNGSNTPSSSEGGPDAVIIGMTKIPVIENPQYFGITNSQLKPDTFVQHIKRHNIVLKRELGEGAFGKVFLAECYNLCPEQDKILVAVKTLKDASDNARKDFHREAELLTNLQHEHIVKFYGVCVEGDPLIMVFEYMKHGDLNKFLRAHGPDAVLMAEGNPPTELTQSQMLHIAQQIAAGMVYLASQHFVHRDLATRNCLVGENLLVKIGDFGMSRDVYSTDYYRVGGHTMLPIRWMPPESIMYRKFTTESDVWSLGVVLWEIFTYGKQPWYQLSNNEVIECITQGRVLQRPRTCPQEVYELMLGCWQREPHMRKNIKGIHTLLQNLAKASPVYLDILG
# UniProt P15209, residues 32-821: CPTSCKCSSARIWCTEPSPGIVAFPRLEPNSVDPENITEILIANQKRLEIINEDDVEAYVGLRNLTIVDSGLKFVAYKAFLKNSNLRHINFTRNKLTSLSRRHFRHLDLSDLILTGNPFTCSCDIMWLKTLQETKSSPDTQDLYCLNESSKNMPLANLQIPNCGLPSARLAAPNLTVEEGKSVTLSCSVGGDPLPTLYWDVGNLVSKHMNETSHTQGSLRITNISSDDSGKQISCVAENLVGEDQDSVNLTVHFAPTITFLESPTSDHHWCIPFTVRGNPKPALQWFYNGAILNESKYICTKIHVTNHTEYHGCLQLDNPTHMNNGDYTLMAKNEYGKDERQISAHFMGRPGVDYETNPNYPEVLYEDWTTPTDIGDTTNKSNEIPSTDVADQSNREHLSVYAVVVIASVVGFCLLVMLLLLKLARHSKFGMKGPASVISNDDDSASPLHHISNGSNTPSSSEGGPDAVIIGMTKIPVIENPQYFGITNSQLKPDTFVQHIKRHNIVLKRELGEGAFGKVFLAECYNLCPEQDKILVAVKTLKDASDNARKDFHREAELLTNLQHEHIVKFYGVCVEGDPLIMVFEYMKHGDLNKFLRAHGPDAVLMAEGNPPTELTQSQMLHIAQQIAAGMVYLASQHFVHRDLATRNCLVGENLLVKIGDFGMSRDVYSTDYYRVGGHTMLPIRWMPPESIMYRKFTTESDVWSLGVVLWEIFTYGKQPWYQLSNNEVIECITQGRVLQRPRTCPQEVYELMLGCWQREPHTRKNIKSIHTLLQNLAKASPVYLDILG
# B1: GFP-tagged MDGA2 lacking the C-terminal region (aa 834-921) of the MAM domain (MDGA2-ΔM2) (domain or fragment, UniProt Q7Z553)
# chain: PPTVRIVHSGLACNIEEERYSERVYTIREGETLELTCLVTGHPRPQIRWTKTAGSASDRFQDSSVFNETLRITNIQRHQGGRYYCKAENGLGSPAIKSIRVDVYYLDDPVVTVHQSIGEAKEQFYYERTVFLRCVANSNPPVRYSWRRGQEVLLQGSDKGVEIYEPFFTQGETKILKLKNLRPQDYANYSCIASVRNVCNIPDKMVSFRLSNKTASPSIKLLVDDPIVVNPGEAITLVCVTTGGEPAPSLTWVRSFGTLPEKTVLNGGTLTIPAITSDDAGTYSCIANNNVGNPAKKSTNIIVRALKKGRFWITPDPYHKDDNIQIGREVKISCQVEAVPSEELTFSWFKNGRPLRSSERMVITQTDPDVSPGTTNLDIIDLKFTDFGTYTCVASLKGGGISDISIDVNISSSTVPPNLTVPQEKSPLVTREGDTIELQCQVTGKPKPIILWSRADKEVAMPDGSMQMESYDGTLRIVNVSREMSGMYRCQTSQYNGFNVKPREALVQLIVQYPPAVEPAFLEIRQGQDRSVTMSCRVLRAYPIRVLTYEWRLGNKLLRTGQFDSQEYTEYAVKSLSNENYGVYNCSIINEAGAGRCSFLVTGKAYAPEFYYDTYNPVWQNRHRVYSYSLQWTQMNPDAVDRIVAYRLGIRQAGQQRWWEQEIKINGNIQKGELITYNLTELIKPEAYEVRLTPLTKFGEGDSTIRVIKYSAPVNPHLREFHCGFEDGNICLFTQDDTDNFDWTKQSTATRNTKYTPNTGPNADRSGSKEGFYMYIETSRPRLEGEKARLLSPVFSIAPKNPYGPTNTQDLATKNSVD
# B2: GFP-tagged human MDGA2 with the ASD-associated V930I mutation (MDGA2-V930I) (protein, UniProt Q7Z553 26-931)
# chain: PPTVRIVHSGLACNIEEERYSERVYTIREGETLELTCLVTGHPRPQIRWTKTAGSASDRFQDSSVFNETLRITNIQRHQGGRYYCKAENGLGSPAIKSIRVDVYYLDDPVVTVHQSIGEAKEQFYYERTVFLRCVANSNPPVRYSWRRGQEVLLQGSDKGVEIYEPFFTQGETKILKLKNLRPQDYANYSCIASVRNVCNIPDKMVSFRLSNKTASPSIKLLVDDPIVVNPGEAITLVCVTTGGEPAPSLTWVRSFGTLPEKTVLNGGTLTIPAITSDDAGTYSCIANNNVGNPAKKSTNIIVRALKKGRFWITPDPYHKDDNIQIGREVKISCQVEAVPSEELTFSWFKNGRPLRSSERMVITQTDPDVSPGTTNLDIIDLKFTDFGTYTCVASLKGGGISDISIDVNISSSTVPPNLTVPQEKSPLVTREGDTIELQCQVTGKPKPIILWSRADKEVAMPDGSMQMESYDGTLRIVNVSREMSGMYRCQTSQYNGFNVKPREALVQLIVQYPPAVEPAFLEIRQGQDRSVTMSCRVLRAYPIRVLTYEWRLGNKLLRTGQFDSQEYTEYAVKSLSNENYGVYNCSIINEAGAGRCSFLVTGKAYAPEFYYDTYNPVWQNRHRVYSYSLQWTQMNPDAVDRIVAYRLGIRQAGQQRWWEQEIKINGNIQKGELITYNLTELIKPEAYEVRLTPLTKFGEGDSTIRVIKYSAPVNPHLREFHCGFEDGNICLFTQDDTDNFDWTKQSTATRNTKYTPNTGPNADRSGSKEGFYMYIETSRPRLEGEKARLLSPVFSIAPKNPYGPTNTAYCFSFFYHMYGQHIGVLNVYLRLKGQTTIENPLWSSSGNKGQRWNEAHVNIYPITSFQLIFEGIRGPGIEGDIAIDDVSIAEGECAKQDLATKNSID
# B3: MDGA2 (MAM domain containing glycosylphosphatidylinositol anchor 2), endogenous mouse (protein, UniProt P60755 26-924)
# chain: PPTVRIVHSGLACNIEEERYSERVYTIREGETLELTCLVTGHPRPQIRWTKTAGSASDRFQDSSVFNETLRITNIQRHQGGRYYCKAENGLGSPAIKSIRVDVYYLDDPVVTVHQSIGEAKEQFYYERTVFLRCVANSNPPVRYSWRRGQEVLLQGSDKGVEIYEPFFTQGETKILKLKNLRPQDYANYSCIASVRNVCNIPDKMVSFRLSNKTASPSIKLLVDDPIVVNPGEAITLVCVTTGGEPTPSLTWVRSFGTLPEKIVLNGGTLTIPAITSDDAGTYSCIANNNVGNPAKKSTNIIVRALKKGRFWITPDPYHKDDNIQIGREVKISCQVEAVPSEELTFSWFKNGRPLRSSERMVITQTDPDVSPGTTNLDIIDLKFTDFGTYTCVASLKGGGISDISIDVNISSSTVPPNLTVPQEKSPLVTREGDTIELQCQVTGKPKPIILWSRADKEVAMPDGTMQMESYDGTLRIVNVSREMSGMYRCQTSQYNGFNVKPREALVQLIVQYPPAVEPAFLEIRQGQDRSVTMSCRVLRAYPIRVLTYEWRLGNKLLRTGQFDSQEYTEYPLKSLSNENYGVYNCSIINEAGAGRCSFLVTGKAYAPEFYYDTYNPVWQNRHRVYSYSLQWTQMNPDAVDRIVAYRLGIRQAGQQRWWEQEIKINGNIQKGELITYNLTELIKPEAYEVRLTPLTKFGEGDSTIRVIKYTGEFHCGFEDGNICLFTQDDTDNFDWTKQSTATRNTKYTPNTGPSADRSGSKEGFYMYIETSRPRLEGEKARLLSPVFSIAPKNPYGPTNSAYCFSFFYHMYGQHIGVLNVYLRLKGQTTIENPLWSSSGNKGQRWNEAHVNIYPITSFQLIFEGIRGPGIEGDIAIDDVSIAEGECAKQDLPTKNSVD
# B4: MDGA1, endogenous mouse (protein, UniProt Q0PMG2 19-933)
# chain: QGVYAPAQAQIVHAGQACVVKEDNISERVYTIRESDTLVLQCLVTGHPRPQVRWTKTAGSASDKFQETSVFNETLRIERIARTQGGRYYCKAENGVGVPAIKSIRVDVQYLDEPVLTVHQTVSDVRGNFYQEKTVFLRCTVSSNPPARFIWKRGSDTLSHSQDNGVDIYEPLYTQGETKVLKLKNLRPQDYASYTCQVSVRNVCGIPDKAITFQLTNTTAPPALKLSVNETLVVNPGENVTVQCLLTGGDPLPQLHWSHGPGPLPLGALAQGGTLSIPSVQARDSGYYNCTATNNVGNPAKKTVNLLVRSLKNATFQITPDMIKESENIQLGQDLKLSCHVDAVPQEKVNYQWFKNGKPARTSKRLLVTRNDPELPAVTSSLELIDLHFSDYGTYLCMASFPGSPVPDLSIEVNISSETVPPTISVPKGRAVVTVREGSPAELQCEVRGKPRPPVLWSRVDKEAALLPSGLALEETPDGKLRLESVSRDMSGTYRCQTARYNGFNVRPREAQVQLTVHFPPEVEPSSQDVRQALGRPVLLRCSLLRGSPQRIASAVWRFKGQLLPPPPVLPAAAVETPDHAELRLDALTRDSSGNYECSVSNDVGSATCLFQVSAKAYSPEFYFDTPNPTRSHKLSKNYSYVLQWTQREPDAVDPVLNYRLSIRQLNQHNAMVKAIPVRRVEKGQLLEYILTDLRVPHSYEIRLTPYTTFGAGDMASRIIHYTEPINLPSLSDNTCHFEDEKICGYTQDLTDNFDWTRQNALTQNPKRSPNTGPPTDISGTPEGYYMFIETSRPRELGDRARLVSPLYNASAKFYCVSFFYHMYGKHIGSLNLLVRSRNKGTLDTHAWSLSGNKGNVWQQAHVPINPSGPFQIIFEGVRGSGYLGDIAIDDVTLKKGECPRRQMDPNKVVVMPGS
# B5: GFP-tagged MDGA2 lacking the entire MAM domain (MDGA2-ΔMAM-GFP) (domain or fragment, UniProt Q7Z553)
# chain: PPTVRIVHSGLACNIEEERYSERVYTIREGETLELTCLVTGHPRPQIRWTKTAGSASDRFQDSSVFNETLRITNIQRHQGGRYYCKAENGLGSPAIKSIRVDVYYLDDPVVTVHQSIGEAKEQFYYERTVFLRCVANSNPPVRYSWRRGQEVLLQGSDKGVEIYEPFFTQGETKILKLKNLRPQDYANYSCIASVRNVCNIPDKMVSFRLSNKTASPSIKLLVDDPIVVNPGEAITLVCVTTGGEPAPSLTWVRSFGTLPEKTVLNGGTLTIPAITSDDAGTYSCIANNNVGNPAKKSTNIIVRALKKGRFWITPDPYHKDDNIQIGREVKISCQVEAVPSEELTFSWFKNGRPLRSSERMVITQTDPDVSPGTTNLDIIDLKFTDFGTYTCVASLKGGGISDISIDVNISSSTVPPNLTVPQEKSPLVTREGDTIELQCQVTGKPKPIILWSRADKEVAMPDGSMQMESYDGTLRIVNVSREMSGMYRCQTSQYNGFNVKPREALVQLIVQYPPAVEPAFLEIRQGQDRSVTMSCRVLRAYPIRVLTYEWRLGNKLLRTGQFDSQEYTEYAVKSLSNENYGVYNCSIINEAGAGRCSFLVTGKAYAPEFYYDTYNPVWQNRHRVYSYSLQWTQMNPDAVDRIVAYRLGIRQAGQQRWWEQEIKINGNIQKGELITYNLTELIKPEAYEVRLTPLTKFGEGDSTIRVIKYSAPVNPHLREQDLATKNSVD
# B6: GFP-tagged MDGA2 lacking the N-terminal region (aa 746-833) of the MAM domain (MDGA2-ΔM1) (domain or fragment, UniProt Q7Z553)
# chain: PPTVRIVHSGLACNIEEERYSERVYTIREGETLELTCLVTGHPRPQIRWTKTAGSASDRFQDSSVFNETLRITNIQRHQGGRYYCKAENGLGSPAIKSIRVDVYYLDDPVVTVHQSIGEAKEQFYYERTVFLRCVANSNPPVRYSWRRGQEVLLQGSDKGVEIYEPFFTQGETKILKLKNLRPQDYANYSCIASVRNVCNIPDKMVSFRLSNKTASPSIKLLVDDPIVVNPGEAITLVCVTTGGEPAPSLTWVRSFGTLPEKTVLNGGTLTIPAITSDDAGTYSCIANNNVGNPAKKSTNIIVRALKKGRFWITPDPYHKDDNIQIGREVKISCQVEAVPSEELTFSWFKNGRPLRSSERMVITQTDPDVSPGTTNLDIIDLKFTDFGTYTCVASLKGGGISDISIDVNISSSTVPPNLTVPQEKSPLVTREGDTIELQCQVTGKPKPIILWSRADKEVAMPDGSMQMESYDGTLRIVNVSREMSGMYRCQTSQYNGFNVKPREALVQLIVQYPPAVEPAFLEIRQGQDRSVTMSCRVLRAYPIRVLTYEWRLGNKLLRTGQFDSQEYTEYAVKSLSNENYGVYNCSIINEAGAGRCSFLVTGKAYAPEFYYDTYNPVWQNRHRVYSYSLQWTQMNPDAVDRIVAYRLGIRQAGQQRWWEQEIKINGNIQKGELITYNLTELIKPEAYEVRLTPLTKFGEGDSTIRVIKYSAPVNPHLREAYCFSFFYHMYGQHIGVLNVYLRLKGQTTIENPLWSSSGNKGQRWNEAHVNIYPITSFQLIFEGIRGPGIEGDIAIDDVSIAEGECAKQDLATKNSVD
# Legend:
# [1] = biological target: Flag-tagged full-length human TrkB (TrkB-Flag) (human) (UniProt Q16620); assay: co-IP; HEK293T cells co-transfected with Flag-tagged TrkB constructs and GFP-tagged MDGA2 constructs; lysates IP with control IgG, anti-Flag or anti-GFP, immunoblot
# [2] = biological target: Flag-tagged full-length human TrkB (TrkB-Flag) (human) (UniProt Q16620); assay: co-IP; mouse primary neurons transfected with GFP-tagged MDGA2, V930I or ΔMAM (text: co-transfected with TrkB); lysates IP with GFP or an anti-TrkB antibody, immunoblot
# [3] = biological target: TrkB (tyrosine kinase B receptor), endogenous mouse (mouse (endogenous in mouse brain)) (UniProt P15209); assay: co-IP; mouse brain lysates (WT; Het and WT littermates for BDNF), IP with an anti-TrkB antibody or control IgG, immunoblot
binder,measurement,setting,value
B1,binding,[1],binds
B2,binding,[2],binds
B3,binding,[3],binds
B4,binding,[3],no binding
B5,binding,[1],no binding
B6,binding,[1],no binding

# — paper PMC11960969, “Mdga2 deficiency leads to an aberrant activation of BDNF/TrkB signaling that underlies autism-relevant synaptic and behavioral changes in mice” (PLOS Biology, 2025)
